This note sets out measurements from the BET-seq Pho4 binding data (Le et al. 2018).

The other results are listed elsewhere or left out. Values were computed here from the reads of four pooled replicates and scatter widely.

The test addresses T1, Pho4 (S. cerevisiae) (UniProt P07270).
T1 sequence: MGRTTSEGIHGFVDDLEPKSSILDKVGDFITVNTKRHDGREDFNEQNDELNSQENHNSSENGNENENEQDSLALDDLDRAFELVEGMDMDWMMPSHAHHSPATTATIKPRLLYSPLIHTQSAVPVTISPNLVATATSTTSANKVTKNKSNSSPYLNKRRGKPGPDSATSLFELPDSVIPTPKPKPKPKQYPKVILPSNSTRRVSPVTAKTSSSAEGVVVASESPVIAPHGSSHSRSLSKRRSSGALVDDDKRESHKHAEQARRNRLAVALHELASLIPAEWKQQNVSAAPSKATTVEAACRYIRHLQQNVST
The test is described as follows: relative binding free energy (BET-seq); higher = weaker binding. The note with it: reference: library average.
For AGTGGCACGTGGTTTC, the “relative binding free energy” value is -0.1 kcal/mol.

TAGCTCACGTGGGTAT: the “relative binding free energy” value turned out to be 0.15 kcal/mol.

With CAGTACACGTGGTGGA, the “relative binding free energy” value was 0.03 kcal/mol.

Regarding GATGGCACGTGTGTTG, the “relative binding free energy” value is -0.01 kcal/mol.

In the case of TCTGTCACGTGTTTTA, the “relative binding free energy” value was -0.05 kcal/mol.

For TTGGTCACGTGGTAGG, the “relative binding free energy” value worked out at 0.13 kcal/mol.

For GTACACACGTGGCGGG, the “relative binding free energy” value is -0.04 kcal/mol.

TTTAGCACGTGGTAGT: the “relative binding free energy” value is -0.16 kcal/mol.

Regarding GCATGCACGTGTGGTA, the “relative binding free energy” value is -0.08 kcal/mol.

With TGTAGCACGTGGCTCG, the “relative binding free energy” value is -0.15 kcal/mol.

TAAGGCACGTGGCTTA: the “relative binding free energy” value was -0.23 kcal/mol.

As to TTATGCACGTGTGCCG, the “relative binding free energy” value is -0.15 kcal/mol.

Regarding ACTGTCACGTGGTTTA, the “relative binding free energy” value amounted to 0.2 kcal/mol.

With GGTGCCACGTGGTTGG, the “relative binding free energy” value was -0.14 kcal/mol.

As for AGGCTCACGTGTTATT, the “relative binding free energy” value was determined as 0.25 kcal/mol.

With GTTTGCACGTGTTAAT, the “relative binding free energy” value worked out at 0.05 kcal/mol.

For AGGGGCACGTGTGAAC, the “relative binding free energy” value came to 0.02 kcal/mol.

As for GGGATCACGTGTCGGT, the “relative binding free energy” value was 0.25 kcal/mol.

For GAAGGCACGTGTGTAG, the “relative binding free energy” value is 0.04 kcal/mol.

For the sequence GTGGACACGTGTTGAG, the “relative binding free energy” value stood at 0.09 kcal/mol.

As for GGATACACGTGGCGTA, the “relative binding free energy” value came to 0 kcal/mol.

ATGATCACGTGGATTA: the “relative binding free energy” value was 0.23 kcal/mol.

Turning to AGCTTCACGTGATAGG, the “relative binding free energy” value was determined as 0.29 kcal/mol.

Take GTTTCCACGTGGGTGA: the “relative binding free energy” value is -0.17 kcal/mol.

As to CGGCTCACGTGGGGTG, the “relative binding free energy” value is 0.04 kcal/mol.

On to TACTGCACGTGGCGGG, for which the “relative binding free energy” value was -0.2 kcal/mol.

Turning to GGATGCACGTGGTTTA, the “relative binding free energy” value was -0.04 kcal/mol.

For the sequence GTGTGCACGTGCTAGA, the “relative binding free energy” value is -0.02 kcal/mol.

Regarding TTCAGCACGTGAAGTA, the “relative binding free energy” value worked out at 0.32 kcal/mol.

On to TATGCCACGTGGAGGA, for which the “relative binding free energy” value is -0.11 kcal/mol.

As to CGATGCACGTGGCGGG, the “relative binding free energy” value was -0.2 kcal/mol.

As to GTGTGCACGTGGCCTT, the “relative binding free energy” value is -0.09 kcal/mol.

As for TGTTCCACGTGATGTA, the “relative binding free energy” value worked out at 0.03 kcal/mol.

As for CGTTGCACGTGTGGTA, the “relative binding free energy” value was -0.06 kcal/mol.

Take AGGTCCACGTGTGTGC: the “relative binding free energy” value is -0.01 kcal/mol.

For the sequence GGGCTCACGTGGCGTT, the “relative binding free energy” value was 0.11 kcal/mol.

On to GTAATCACGTGTCTTT, for which the “relative binding free energy” value was determined as 0.2 kcal/mol.

Regarding TTTGGCACGTGAGGGG, the “relative binding free energy” value was 0.19 kcal/mol.

In the case of TTGAGCACGTGTGTAG, the “relative binding free energy” value was -0.12 kcal/mol.

With ATAGACACGTGGGGTT, the “relative binding free energy” value was -0.1 kcal/mol.

As for TCAATCACGTGGTTTC, the “relative binding free energy” value came out at 0.27 kcal/mol.

In the case of ATTTTCACGTGGGCCG, the “relative binding free energy” value was 0.2 kcal/mol.

Take CGTGGCACGTGGATTA: the “relative binding free energy” value is -0.07 kcal/mol.

As for AGTTACACGTGTCGAT, the “relative binding free energy” value was found to be 0.15 kcal/mol.

Regarding GGCTTCACGTGTTTGC, the “relative binding free energy” value was found to be 0.34 kcal/mol.

On to GCGGGCACGTGGCGGA, for which the “relative binding free energy” value is -0.14 kcal/mol.

With TTAATCACGTGTGTCT, the “relative binding free energy” value amounted to 0.11 kcal/mol.

For TGAAACACGTGGGAGT, the “relative binding free energy” value was -0.1 kcal/mol.

Take GGTATCACGTGGTTTG: the “relative binding free energy” value stood at 0.12 kcal/mol.

Take TGAGTCACGTGATTGA: the “relative binding free energy” value was 0.23 kcal/mol.

Consider GTGGTCACGTGTTTCT, for which the “relative binding free energy” value is 0.08 kcal/mol.

With GTTATCACGTGTGTTC, the “relative binding free energy” value came to 0.17 kcal/mol.

On to AGGGTCACGTGTATGG, for which the “relative binding free energy” value turned out to be 0.01 kcal/mol.

With TGTGGCACGTGTCATT, the “relative binding free energy” value is -0.1 kcal/mol.

Regarding GAGGGCACGTGGGACT, the “relative binding free energy” value is -0.26 kcal/mol.

GTTAACACGTGATATG: the “relative binding free energy” value came out at 0.07 kcal/mol.

As for AGTGTCACGTGCCTGG, the “relative binding free energy” value was -0.03 kcal/mol.

For the sequence GTTAGCACGTGGCGTA, the “relative binding free energy” value was -0.05 kcal/mol.

For the sequence AGTATCACGTGTGTCG, the “relative binding free energy” value stood at 0.11 kcal/mol.

Regarding GGGGTCACGTGCGGAA, the “relative binding free energy” value came out at 0.29 kcal/mol.

With AACGGCACGTGTAGGG, the “relative binding free energy” value is -0.11 kcal/mol.

For the sequence GTGATCACGTGAGCGG, the “relative binding free energy” value turned out to be 0.32 kcal/mol.

GCGTACACGTGTGTTT: the “relative binding free energy” value is 0.09 kcal/mol.

For AGATTCACGTGTGGAT, the “relative binding free energy” value stood at 0.37 kcal/mol.

Take TAAAGCACGTGGGGAC: the “relative binding free energy” value is -0.16 kcal/mol.

In the case of ATGGTCACGTGTATGA, the “relative binding free energy” value turned out to be 0.07 kcal/mol.

Turning to TGAATCACGTGCGGTG, the “relative binding free energy” value came out at 0.18 kcal/mol.

With TGAAACACGTGTAGTT, the “relative binding free energy” value was found to be 0.07 kcal/mol.

Consider GTATTCACGTGTAGTG, for which the “relative binding free energy” value came out at 0.24 kcal/mol.

As for GGAGGCACGTGGCATA, the “relative binding free energy” value is -0.09 kcal/mol.

For GGTGTCACGTGTTAAC, the “relative binding free energy” value was determined as 0.13 kcal/mol.

In the case of CATGTCACGTGTTGAG, the “relative binding free energy” value was -0.01 kcal/mol.

For TGAATCACGTGGACTG, the “relative binding free energy” value came out at 0.23 kcal/mol.
